# Test results reported in the RNAGym collection of RNA variant scans (doi:10.7554/elife.90254).
# The source gives no read counts; variants with many changes may rest on few reads.
# B1: LINE1-full (parent)
# chain: UACGUAGGUGGUUUUCCCCUGAUAGUGCUAAGGGGGCCUGGAAGUUUGGACUGGGCAGAGCUCAACACAGCGUGGCAAAGUGGCUGUGGCUAGACUGCCUCUCUGGAUUCCUCGUCACUCAGCAGGGCAUCUCUGAGAGAAAUGCC
# Variants of: B1
# Experiment: self-cleavage, relative activity (ratio to wild type); higher = more cleavage; in vitro, sequencing; the parent is a self-cleaving ribozyme
row,Variant,self-cleavage
1,U47C U108C A141G,1.39
2,G48U A77G A79G,0.35
3,U1C A6G U14C A42U G137U,0.82
4,U14C A43G A121G C146U,1.6
5,U73C G86A U143G,0.11
6,U45A G114A U119C,1.9
7,A30G G58A U100A,0.04
8,U12A A59G A124G,0.41
9,U62C A65U A136G A142G,0
10,U14A U20C C145A,0.45
11,A43G G75A A94G A124U,0.12
12,A57U U73C G74A A77G A138G A141G,0.12
13,A30G A67G A141G,0.44
14,G34A A57G U81A,1.14
15,U13A U73A C99U C116U A136G,0.62
16,G32A A64G A138G,0.36
17,A2G U47A U119A,0.96
18,A59G C90A A140G,0.04
19,A67G U104A A136U,0.53
20,G10U U81C A142G,2.34
21,G33U U73C A78G G86A U132C,0.07
22,U29C G70A U73C A121U,0.63
23,A50G A79G U130C,1.67
24,A42G U108C U130C U132C,2.7

row,Variant,self-cleavage
1,U12A U20C U96A,0.12
2,A77G U115C U119C,2.19
3,U15C A22G U26C,0.97
4,U14C A42G U47A U62C A121G,0.13
5,C76U U87C A142G,0.53
6,U81G U115C A117C,2.85
7,C120U A136G A142G,1.91
8,U26C G55A U96C,0
9,U5C U39A U46C U73C A92G A136U,2.51
10,A43G U45C A140G,2.04
11,A6U U13C A65G A141G,0
12,A67G G72A G82A A129C,0.46
13,U15C G33U C56U A69G U85C U143C,0.23
14,U39C C66U U108C,0.05
15,U62C A69U U104C A107G,0
16,U5C U12C G75C A117G,0.8
17,U20A G97A C110A,0.04
18,U52C A69U A107G,0
19,U15A A78U U132C A142G,1.87
20,U5C U26C A43G,1.05
21,A69U A92U A136G,0.04
22,G48A U52A A69U,0.05
23,G8A A79G U108C U134C,2.3
24,U62C A65G A94G,0

row,Variant,self-cleavage
1,U20A A78G A129G A140G,0.51
2,A24G U47A C76U A140G,1.77
3,A77G U96G A142U,0.11
4,U20A A22G U26A,0.71
5,U12G U39C U81A A129U A141G,2.1
6,A57U G88A A124G,0.03
7,A69G A117G A138G A140G,1.84
8,A57U U87A U143C,0.05
9,A6U U62A A78G A141G,0.16
10,C113U U119C A136G U143C,1.65
11,C19U U87C U143C,0.07
12,U15C U81A U115C,2.03
13,A30G U46C U132C,0.46
14,U5C U62C A141G,0.11
15,U20A C76U U102C U104A A136C,2.11
16,A67G G75A U102A A124G,0.37
17,A2G A69G A141G,0
18,C111U C118U A141G,1.5
19,A22G U73A U132C,2.08
20,U12A U62C A67G,0.68
21,U39C U85C A92C C118A,0.21
22,A22U U45C U100C U134C U143A,1.15
23,A24U U47A U96C C120A,0
24,U26A A64G U73A,0.29

row,Variant,self-cleavage
1,A42G A43G A57G G82A A94G U100A,0
2,U1A U13C U45C U115C U134A,0
3,U5C G7A U39C A141G,1.02
4,U15A U104C A129U,0.67
5,U62C A69G U134A,0.11
6,G53A A67U U130C,0.13
7,A79G U104A U115C,1.84
8,A57U A65U U81A U85C,0.05
9,U12C A42G A57U U130C A142G,0.55
10,G48C A140G A142G,1.14
11,U12A U47C A124U,1.9
12,U13C U112C C120A,1.39
13,U14C U73A A138G,1.91
14,U39C A42G A141G,0.57
15,A24G C51A U87A C145U,0.19
16,U14A A57G U73C,1.16
17,U20A A22G G89A U115G,0.05
18,A79G U102A A140G,1.24
19,U45C A57G A79G,1.53
20,U15A U23C G36A A67G,0.6
21,A69U U130C A142U G144A,0.39
22,U104A U112C G126A U134G U143A,1.56
23,A22U A24U A67G U87C G144A,1.84
24,A22G A30U U104C,1.31

row,Variant,self-cleavage
1,U14A A94U G126U C145U,0.2
2,A57G C71A U104A A140G,0.03
3,U13C U26C G60C A67G U91A U134C,0
4,U12C G72A A94G U115C,0.32
5,C71A A78G G93A A140G,0.03
6,A6G U52A U132C,0.91
7,A64G G82A U100C C128U A140G,0.22
8,U9A A65G A69G,0
9,U81A U87C U119C U143C,0.45
10,U73A U119A A138G,1.36
11,U5C A65G A141G,0
12,A22G A57U A64U,0
13,A6U A79G U96C A138G,0.35
14,U15C U73G U112C,1.17
15,U26C C56U A69U A79U A124G U132A,0
16,A59G A69G A79G,0.17
17,G58A A77U A117G,0.07
18,U20A U26A U47C U87G A140G,0.14
19,U13C A42G C131U,1.55
20,C28G A121G U134C,2.53
21,G21A G60C C146A,0.05
22,G41A U87C U104C,0.25
23,A57U A65G A69G,0
24,U20C U46C A77U U87A,0.13

row,Variant,self-cleavage
1,A67U U96A A129U,0.03
2,U1C U45G A65G U119C,0
3,U39A A140G A141G U143G,1.08
4,U26C U39A A50U U108C,1.23
5,U47C U100A U112C,1.47
6,G125A U134C U143C,1.86
7,A2U C19A C38A A50G A69G A138G,0.22
8,U1C A2G U81C,0.4
9,U15A A50G U52C,0
10,U5A U73A A124G A140G,0.12
11,U20C A22G U132C U143A,2.24
12,U12G A43G U119C G144A,1.18
13,U5A G8A A57G A64G,0.51
14,U62C U102A A138G,0
15,A42G G127A A140G,0.69
16,G8A U26C U91A,0.86
17,U13C A67G A107G U115G G126A A138U,0
18,G4A C113A A129U,1.16
19,U20G A94G U96G,0.63
20,U12G C84A C99U,0.08
21,A24G A67U G74U U108C U109C U119C,0
22,A2G U81C A136G,1.02
23,U13C U20C U62C C63G A65U U73A,0
24,A31G U73A A124G,1.16

row,Variant,self-cleavage
1,A2U A77G A140G A141G,2.97
2,A22G A57G A140G,0.55
3,U12G A79U A94G,0
4,U46G U108C A136G,1.29
5,A77G U109C U134C,2.85
6,G10C U15C A129G,0.94
7,A57G A64U A67U,0.05
8,U12C U15C C19U A67G A94U C110U C131A,0.11
9,A2U A69G A141G,0.42
10,U12A U14C A57U,0.33
11,A22U U47C U100C,0
12,U23C U119C A121G,1.04
13,U26C U52C U112C,1.02
14,U26C U73C A77U U87A U115A A117U,0.06
15,U52A A79G U112C C113U,0.59
16,U9A A31G A65C U134A,0.27
17,U5C U13C C37A A69U A141G,0.09
18,U9A A42G U46A U112A U115A,1.53
19,G88A A117G A138G,0.02
20,U9A U15C U62C A65G C71U,0
21,U45A A57U U87A,0.04
22,U39C U91A C113U U115C G127A A138G,0.44
23,U13C U15C A65U A94C,0.09
